Assay results reported in PMC4336329 (PLoS ONE, 2015).
In all, about 310,000 compounds went through this assay and about 2,200 (0.71%) showed an effect of 50% or more. The effect is printed as a negative number. The list shows a part of the results.

target: human ether-à-go-go-related gene (hERG) potassium channel (human, UniProt Q12809); test: primary screen, population patch clamp on CHO cells stably expressing hERG
Sequence (Q12809 whole entry, looked up): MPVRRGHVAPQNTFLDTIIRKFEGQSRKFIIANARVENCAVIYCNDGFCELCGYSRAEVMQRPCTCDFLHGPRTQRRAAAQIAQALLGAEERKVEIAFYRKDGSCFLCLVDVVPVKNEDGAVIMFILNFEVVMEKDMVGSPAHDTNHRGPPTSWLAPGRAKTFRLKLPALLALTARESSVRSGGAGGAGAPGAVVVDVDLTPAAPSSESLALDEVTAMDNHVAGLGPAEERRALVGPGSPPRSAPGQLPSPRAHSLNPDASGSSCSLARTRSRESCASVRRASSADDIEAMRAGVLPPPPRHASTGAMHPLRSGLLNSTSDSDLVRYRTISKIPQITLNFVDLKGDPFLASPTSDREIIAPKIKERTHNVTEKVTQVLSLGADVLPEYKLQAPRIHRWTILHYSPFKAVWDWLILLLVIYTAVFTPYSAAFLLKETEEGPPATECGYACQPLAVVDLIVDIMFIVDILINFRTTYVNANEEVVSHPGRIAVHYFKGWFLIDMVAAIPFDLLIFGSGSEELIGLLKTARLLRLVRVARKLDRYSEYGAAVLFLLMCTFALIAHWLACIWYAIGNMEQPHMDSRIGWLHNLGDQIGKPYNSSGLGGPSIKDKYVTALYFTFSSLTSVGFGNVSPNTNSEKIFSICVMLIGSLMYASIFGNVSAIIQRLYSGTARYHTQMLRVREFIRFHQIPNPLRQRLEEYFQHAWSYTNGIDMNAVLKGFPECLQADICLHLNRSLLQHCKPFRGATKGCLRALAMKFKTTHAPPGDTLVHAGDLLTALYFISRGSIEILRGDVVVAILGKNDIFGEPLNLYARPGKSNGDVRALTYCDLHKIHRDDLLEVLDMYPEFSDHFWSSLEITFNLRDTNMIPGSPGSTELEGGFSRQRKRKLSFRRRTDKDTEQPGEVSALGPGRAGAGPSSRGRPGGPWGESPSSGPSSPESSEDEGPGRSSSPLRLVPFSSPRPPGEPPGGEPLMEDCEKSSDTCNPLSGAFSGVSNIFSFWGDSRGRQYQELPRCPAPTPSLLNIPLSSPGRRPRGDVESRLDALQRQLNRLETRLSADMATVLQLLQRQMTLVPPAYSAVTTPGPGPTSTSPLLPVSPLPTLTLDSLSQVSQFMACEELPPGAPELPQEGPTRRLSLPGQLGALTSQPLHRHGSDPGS

| SMILES | hERG current change (%, negative = inhibition) at 1uM [%] |
| --- | --- |
| O=C(NC1CCCCC1)c1ccc(-c2cccc([N+](=O)[O-])c2)o1 | 17.3 |
| Oc1ccc(Br)cc1Cn1nnc2ccccc21 | 13.6 |
| O=C(CSC1=Nc2ccccc2C2CC=NN12)Nc1ccc(F)cc1Cl (stereo not shown) | 21.4 |
| N=c1c2c(-c3ccccc3)c(-c3ccccc3)n(Cc3ccco3)c2ncn1Cc1ccccc1 | -4.13 |
| O=C(c1cc(-c2ccc(F)cc2)nc2ccccc12)N1CCN(C2CCS(=O)(=O)C2)CC1 (stereo not shown) | -23.8 |
| O=C(NCCc1ccc(OC(F)F)cc1)C1CC(=O)N(c2ccc3c(c2)OCCO3)C1 (stereo not shown) | -11.9 |
| CCOC(=O)c1c(-c2cccc([N+](=O)[O-])c2)csc1NC(=O)C1CC1 | 1.32 |
| Cc1cc(C)c(S(=O)(=O)N(CC(=O)O)C2CCCCC2)c(C)c1 | 9.45 |
| COc1ccc(NC(=O)c2ccccc2NS(=O)(=O)c2ccc(C)cc2)c([N+](=O)[O-])c1 | 7.95 |
| COCCNc1nnc(Cc2ccc(OC)c(OC)c2)c(=O)[nH]1 | 19.7 |
| COCC1CCCN(Cc2cn[nH]c2-c2cc3ccccc3o2)C1 (stereo not shown) | 0.0962 |
| COCc1c(C(=O)N/N=C/c2c[nH]c3ccccc23)nnn1-c1nonc1N | 14.5 |
| Cc1cc(C)nc(NC(=O)c2cccs2)n1 | 6.88 |
| Cc1ccccc1CN1CCN(C(=O)c2ccc(F)cc2)CC1.O=C(O)C(=O)O | 14.6 |
| COc1cc(CN2CCC(n3nccc3NC(=O)C3CCOC3)CC2)ccc1F (stereo not shown) | 2.37 |
| COc1ccc(CCn2c3c(c(=O)[nH]c2=O)C(NC(=O)c2cccs2)(C(F)(F)F)C(=O)N3)cc1OC (stereo not shown) | 10.8 |
| COc1ccc(Cn2nnnc2CN2CCC(O)(c3ccccc3F)CC2)cc1 | 7.8 |
| O=C(OCC1COc2ccccc2O1)c1c(F)cccc1F (stereo not shown) | 11.8 |
| Cc1cc(Cl)ccc1NC(=O)CN1CCCC1 | 13.6 |
| CCOc1ccc(NC(=O)CSc2nnc(C34CC5CC(CC(C5)C3)C4)n2C)cc1 | 4.85 |
| NC(=NC1CCCCC1)NS(=O)(=O)c1ccccc1 | 15.6 |
| O=C(O)CCCC(=O)NCCc1cccc(Cl)c1 | 6.22 |

| SMILES | hERG current change (%, negative = inhibition) at 1uM [%] |
| --- | --- |
| CC(NC(=O)Nc1cccc([N+](=O)[O-])c1)(C(F)(F)F)C(F)(F)F | 14.2 |
| COc1ccc(C(=O)CSc2nnc(-c3ccco3)o2)cc1 | 2.29 |
| O=C(Nc1ccccc1OC(F)F)c1oc2ccccc2c1COc1ccccc1 | 7.45 |
| N#CCCN(Cc1ccccc1)C(=O)Nc1ccccc1 | 16.7 |
| Cc1ccc(C)c(OCCSc2nnc(-c3cccnc3)n2N)c1 | 10.7 |
| O=C(CSC(=S)N1CCOCC1)Nc1nc(-c2ccccc2)c(-c2ccccc2)o1 | 4.71 |
| CN[C@H]1CCc2cc(OC)c(OC)c(OC)c2-c2ccc(N(C)CC(OC)OC)c(=O)cc21 | 23.2 |
| CCN(CC)CCNC(=O)c1ccc2c(c1)NC(=O)c1ccccc1S2 | -1.15 |
| CCOc1ccc(Br)cc1C(=O)N/N=C/c1c[nH]c2ccccc12 | 16.5 |
| O=C(CCl)NCCCCCCCCCNC(=O)CCl | 16.7 |
| Cc1cc(/C=N/O)c(C)n1-c1ccccc1 | 14 |
| Cc1ccccc1C(=O)N1CCN(c2nc(N3CCOCC3)nc(N3CCOCC3)n2)CC1 | 6.55 |
| O=C(Nc1ccccc1C(=O)N/N=C/c1ccccc1)c1ccco1 | 11 |
| Cc1ccc(S(=O)(=O)NC(=O)NCc2ccc3c(c2)OCO3)cc1 | 10.2 |
| C=CCNC(=O)NS(=O)(=O)c1ccc(C)cc1 | 16.6 |
| Cc1cc(NC(=O)C(C)SCC(=O)Nc2ccc(SC(F)F)cc2)no1 (stereo not shown) | 4.96 |
| CN(Cc1ccccc1)CC(O)COc1ccc(CNCCc2ccncc2)cc1 (stereo not shown) | 14.2 |
| Cc1cccn2c(=O)c(/C=C(\C#N)S(=O)(=O)c3ccccc3)c(N3CCN(C)CC3)nc12 | -14.3 |
| Cc1ccc(-n2nc(C(=O)c3ccccc3)n3c(=O)cc(-c4ccccc4)nc23)cc1 | 14.7 |
| CN(C)C=O.N=C1C(c2nc(-c3ccc(Br)cc3)cs2)=C(O)CN1NC(=O)c1ccc([N+](=O)[O-])cc1 | 16.1 |
| COc1ccc(CN(C)C(=O)/C=C/c2ccc(S(=O)(=O)N3CCCCCC3)cc2)cc1 | 2.2 |
| CC(C)c1cc(C(=O)NCCc2ccccc2)no1 | -6.34 |

| SMILES | hERG current change (%, negative = inhibition) at 1uM [%] |
| --- | --- |
| COc1ccc(NC(=O)COc2ccc(C(=O)NCc3cccnc3)cc2OC)cc1 | 11 |
| CC(=O)c1cccc(NC(=O)c2ccoc2C)c1 | 7.42 |
| CCOc1ccc2[nH]c3ncccc3c(=O)c2c1 | 17.8 |
| CCCOc1c(OC)cccc1C1CC(=O)Nc2cc3c(cc21)OCCO3 (stereo not shown) | 2.08 |
| O=S(=O)(c1ccccc1)N1N=C(c2ccccc2)CC1c1ccccc1F (stereo not shown) | 11.3 |
| O=C(Nc1nccs1)C(NS(=O)(=O)c1ccc(Br)s1)c1ccccc1 (stereo not shown) | 3.84 |
| COC(=O)C(C)n1nc(C)n(-c2ccc(C)cc2)c1=O (stereo not shown) | -5.24 |
| CCCCSc1nnc([C@H](C)NC(=O)OC(C)(C)C)o1 | 10.9 |
| C=CCc1cc(/C=N/NC(=O)CSc2nnc(CCCc3ccc(OC)cc3)o2)cc(OC)c1O | 8.78 |
| CCc1nc(N)c(C#N)c(-c2cccn2C)c1C | 11.5 |
| CCN1C[C@]2(COC)CC[C@H](O)[C@]34C1[C@](O)([C@@H](OC)[C@H]23)[C@@]1(O)C[C@H](OC)[C@H]2C[C@@H]4[C@@H]1[C@H]2OC | 14.5 |
| COc1ccc(CC(=O)N2CCCC2)c(OC)c1 | 12.4 |
| COc1ccc(NC(=O)COC(=O)/C=C/c2ccccc2[N+](=O)[O-])cc1 | -11.5 |
| COc1ccc(NC(=O)C(C)N2c3cccc4cccc(c34)S2(=O)=O)c(OC)c1 (stereo not shown) | 9.42 |
| O=C(C1=C(O)C(=O)N(CCCn2ccnc2)C1c1cccc(Br)c1)c1ccco1 (stereo not shown) | 12.1 |
| O=C(NCc1ccccc1)c1cc[n+](Cc2ccccc2)cc1.[Cl-] | 10 |
| CC(C)c1nnc(NC(=O)CCC(=O)N2CCN(Cc3ccc(F)cc3)CC2)s1 | 7.95 |
| N#CC1=C(N)N=C(SCc2cccc3ccccc23)C(C(N)=O)C12CCCCC2 (stereo not shown) | 10.6 |
| COC(=O)c1sccc1NC(=S)Nc1cc(C)ccc1OC | 16.5 |
| Cc1ccc(S(=O)(=O)N2CCC(C(=O)NC3CC3)CC2)cc1 | 1.7 |
| Cc1ccc(CNC(=O)CSc2nc(C)cc(C)c2C#N)cc1 | 9.73 |
| O=S(=O)(Cc1ccccc1Cl)c1ncn[nH]1 | 8.77 |

| SMILES | hERG current change (%, negative = inhibition) at 1uM [%] |
| --- | --- |
| CCC(CC)c1nnc(NC(=O)COc2ccc3c(c2)OCO3)s1 | 9.68 |
| CNC(=O)COC(=O)c1cc(-c2ccccc2)nn1-c1ccccc1 | 12.4 |
| CCOC(=O)c1ccc(S(=O)(=O)NNC(=O)c2cccc(N(C)C)c2)cc1 | 23.4 |
| C=C(C)CNC(=S)/N=c1\scc(C)n1CC | 10.5 |
| CC(C)C12CCC(C(=O)O)C(C1)C(=O)O2 (stereo not shown) | 12.6 |
| Cc1ccc(Nc2cc(C)nc(N3CCOCC3)n2)c(C)c1 | 2.72 |
| CC(=O)C1=C(C)NC(SCC(=O)c2ccccc2)=C(C#N)C1CC(C)C (stereo not shown) | 5.79 |
| COc1cc(/C=N/NC(=O)c2sc3nc(C)cc(C)c3c2N)ccc1O | 2.82 |
| CC(=O)c1c(C)[nH]c(C(=O)OCC(=O)N2CCc3ccccc3C2)c1C | 11.1 |
| COc1ccc(OC)c(/C=N/NC(=O)Cn2ccnc2C)c1 | 12.2 |
| O=C(COC(=O)c1ccccn1)Nc1ccc2c(c1)OCO2 | 5.94 |
| CC(NC(=O)NC12CC3CC(CC(C3)C1)C2)c1ccc2c(c1)OCO2 (stereo not shown) | 19.7 |
| Cc1cc(NC(=O)C(C)SCC(=O)OC(C)C(=O)Nc2cccc(C#N)c2)no1 (stereo not shown) | -1.29 |
| CS(=O)(=O)c1cccc(S(=O)(=O)N2CCN(c3ccccn3)CC2)c1 | 10.6 |
| O=C(Cn1c[n+](CC(=O)c2ccc([N+](=O)[O-])cc2)cn1)c1ccc([N+](=O)[O-])cc1.[Br-] | 28.1 |
| O=C(COC(=O)c1cccs1)NCc1ccccc1 | 11.4 |
| CNc1ccc(Cl)nn1 | 4.11 |
| COc1ccc(-n2nc(C(=O)NCC(=O)NCc3ccco3)c3ccccc3c2=O)c(OC)c1 | 11 |
| CCOc1cc2nc3c4ccccc4n(C)c3nc2cc1OCC | 7.6 |
| O=C(NC1CCCC1)C1CCN(C(=O)NCc2ccccc2)CC1 | 11.3 |
| Cc1cc(C)cc(OCCNC(=O)c2ccc(Br)cc2)c1 | 14.7 |
| COc1ccccc1NS(=O)(=O)c1cccc(NC(=S)NCCN2CCOCC2)c1 | -3.43 |
